The text below walks through data of patent US20250108124A1, “ANTIBODY DRUG […] MATES TECHNOLOGY FOR […] AGENTS” (Biohaven Therapeutics Ltd., priority 2021, published 2025).

The nature of series [1]: Aggregation of the purified antibody drug conjugates (ADC quality analysis after conjugation). Type of series: physicochemical. The settings on record: ADC after conjugation with 4 equivalents of reagent and buffer exchange to PBS pH 7.4; A = brentuximab, B = enfortumab. Here is the method:
(§1) The desired antibodies (A=brentuximab and B=enfortumab) were buffer exchanged for over 8 dilution volumes (DVs) with 50 mM HEPES buffer, pH 7.5. The target antibody concentration after buffer exchange was >14 mg/mL. A 10 mM stock solution in DMSO was then prepared for each conjugation reagent. Conjugations of the appropriate reagent to the antibody (A or B) was performed using 4 equivalents of reagent at a target antibody concentration of 10 mg/mL in 50 mM HEPES buffer (pH 7.5) with 20% (v/v) DMSO at 25° C. from 1-7 days. The conjugation reactions were analyzed for drug to antibody ratio (DAR) by LC-MS every 24 hrs. When the DAR reached >1.9 (for linear reagents) or >3.8 (for branched reagents), buffer exchange by UFDF over 30 DVs to PBS, pH7.4 was performed to a final concentration range of approximately 5-9 mg/mL. The ADCs were then analyzed for quality under various conditions.

The nature of series [2]: Drug to antibody ratio (DAR) analysis by LC-MS. Format: physicochemical. The note with it: drug to antibody ratio of final ADC by LC-MS; A = brentuximab, B = enfortumab. The method, then: as §1
The following formula is used for DAR analysis.

B1: B-cmp. 1101: "B=enfortumab"; "Conjugations of the appropriate reagent to the antibody (A or B)": ADC of enfortumab with reagent compound 1101 (conjugate, chains of the INN, looked up)
heavy: EVQLVESGGGLVQPGGSLRLSCAASGFTFSSYNMNWVRQAPGKGLEWVSYISSSSSTIYYADSVKGRFTISRDNAKNSLSLQMNSLRDEDTAVYYCARAYYYGMDVWGQGTTVTVSSASTKGPSVFPLAPSSKSTSGGTAALGCLVKDYFPEPVTVSWNSGALTSGVHTFPAVLQSSGLYSLSSVVTVPSSSLGTQTYICNVNHKPSNTKVDKRV[human IgG1 Fc omitted here]
light: DIQMTQSPSSVSASVGDRVTITCRASQGISGWLAWYQQKPGKAPKFLIYAASTLQSGVPSRFSGSGSGTDFTLTISSLQPEDFATYYCQQANSFPPTFGGGTKVEIKRTVAAPSVFIFPPSDEQLKSGTASVVCLLNNFYPREAKVQWKVDNALQSGNSQESVTEQDSKDSTYSLSSTLTLSKADYEKHKVYACEVTHQGLSSPVTKSFNRGEC
modifications: conjugated to reagent compound 1101
For the molecule B1, the Agg. % in series [1] was found to be 1.12%. For the same molecule, the DAR in series [2] is reported as 2.04.

B2: B-cmp. 1102: "B=enfortumab"; "Conjugations of the appropriate reagent to the antibody (A or B)": ADC of enfortumab with reagent compound 1102 (conjugate, chains of the INN, looked up)
heavy: EVQLVESGGGLVQPGGSLRLSCAASGFTFSSYNMNWVRQAPGKGLEWVSYISSSSSTIYYADSVKGRFTISRDNAKNSLSLQMNSLRDEDTAVYYCARAYYYGMDVWGQGTTVTVSSASTKGPSVFPLAPSSKSTSGGTAALGCLVKDYFPEPVTVSWNSGALTSGVHTFPAVLQSSGLYSLSSVVTVPSSSLGTQTYICNVNHKPSNTKVDKRV[human IgG1 Fc omitted here]
light: DIQMTQSPSSVSASVGDRVTITCRASQGISGWLAWYQQKPGKAPKFLIYAASTLQSGVPSRFSGSGSGTDFTLTISSLQPEDFATYYCQQANSFPPTFGGGTKVEIKRTVAAPSVFIFPPSDEQLKSGTASVVCLLNNFYPREAKVQWKVDNALQSGNSQESVTEQDSKDSTYSLSSTLTLSKADYEKHKVYACEVTHQGLSSPVTKSFNRGEC
modifications: conjugated to reagent compound 1102
As to B2, the Agg. % in series [1] worked out at 0.97%. Also, the DAR in series [2] stood at 2.00.

B3: B-cmp. 1199: "B=enfortumab"; "Conjugations of the appropriate reagent to the antibody (A or B)": ADC of enfortumab with reagent compound 1199 (conjugate, chains of the INN, looked up)
heavy: EVQLVESGGGLVQPGGSLRLSCAASGFTFSSYNMNWVRQAPGKGLEWVSYISSSSSTIYYADSVKGRFTISRDNAKNSLSLQMNSLRDEDTAVYYCARAYYYGMDVWGQGTTVTVSSASTKGPSVFPLAPSSKSTSGGTAALGCLVKDYFPEPVTVSWNSGALTSGVHTFPAVLQSSGLYSLSSVVTVPSSSLGTQTYICNVNHKPSNTKVDKRV[human IgG1 Fc omitted here]
light: DIQMTQSPSSVSASVGDRVTITCRASQGISGWLAWYQQKPGKAPKFLIYAASTLQSGVPSRFSGSGSGTDFTLTISSLQPEDFATYYCQQANSFPPTFGGGTKVEIKRTVAAPSVFIFPPSDEQLKSGTASVVCLLNNFYPREAKVQWKVDNALQSGNSQESVTEQDSKDSTYSLSSTLTLSKADYEKHKVYACEVTHQGLSSPVTKSFNRGEC
modifications: conjugated to reagent compound 1199
In the case of B3, the Agg. % in series [1] is on record as 0.74%. Besides, in series [2], the DAR worked out at 2.04.

B4: B-cmp. 1106: "B=enfortumab"; "Conjugations of the appropriate reagent to the antibody (A or B)": ADC of enfortumab with reagent compound 1106 (conjugate, chains of the INN, looked up)
heavy: EVQLVESGGGLVQPGGSLRLSCAASGFTFSSYNMNWVRQAPGKGLEWVSYISSSSSTIYYADSVKGRFTISRDNAKNSLSLQMNSLRDEDTAVYYCARAYYYGMDVWGQGTTVTVSSASTKGPSVFPLAPSSKSTSGGTAALGCLVKDYFPEPVTVSWNSGALTSGVHTFPAVLQSSGLYSLSSVVTVPSSSLGTQTYICNVNHKPSNTKVDKRV[human IgG1 Fc omitted here]
light: DIQMTQSPSSVSASVGDRVTITCRASQGISGWLAWYQQKPGKAPKFLIYAASTLQSGVPSRFSGSGSGTDFTLTISSLQPEDFATYYCQQANSFPPTFGGGTKVEIKRTVAAPSVFIFPPSDEQLKSGTASVVCLLNNFYPREAKVQWKVDNALQSGNSQESVTEQDSKDSTYSLSSTLTLSKADYEKHKVYACEVTHQGLSSPVTKSFNRGEC
modifications: conjugated to reagent compound 1106
In the case of B4, in series [1], the Agg. % amounted to 1.68%. For the same molecule, the DAR in series [2] was 3.85.

B5: B-cmp. 1103: "B=enfortumab"; "Conjugations of the appropriate reagent to the antibody (A or B)": ADC of enfortumab with reagent compound 1103 (conjugate, chains of the INN, looked up)
heavy: EVQLVESGGGLVQPGGSLRLSCAASGFTFSSYNMNWVRQAPGKGLEWVSYISSSSSTIYYADSVKGRFTISRDNAKNSLSLQMNSLRDEDTAVYYCARAYYYGMDVWGQGTTVTVSSASTKGPSVFPLAPSSKSTSGGTAALGCLVKDYFPEPVTVSWNSGALTSGVHTFPAVLQSSGLYSLSSVVTVPSSSLGTQTYICNVNHKPSNTKVDKRV[human IgG1 Fc omitted here]
light: DIQMTQSPSSVSASVGDRVTITCRASQGISGWLAWYQQKPGKAPKFLIYAASTLQSGVPSRFSGSGSGTDFTLTISSLQPEDFATYYCQQANSFPPTFGGGTKVEIKRTVAAPSVFIFPPSDEQLKSGTASVVCLLNNFYPREAKVQWKVDNALQSGNSQESVTEQDSKDSTYSLSSTLTLSKADYEKHKVYACEVTHQGLSSPVTKSFNRGEC
modifications: conjugated to reagent compound 1103
As for B5, in series [1], the Agg. % is reported as 0.83%. Besides, the DAR in series [2] came out at 2.01.

B6: B-cmp. 1100: "B=enfortumab"; "Conjugations of the appropriate reagent to the antibody (A or B)": ADC of enfortumab with reagent compound 1100 (conjugate, chains of the INN, looked up)
heavy: EVQLVESGGGLVQPGGSLRLSCAASGFTFSSYNMNWVRQAPGKGLEWVSYISSSSSTIYYADSVKGRFTISRDNAKNSLSLQMNSLRDEDTAVYYCARAYYYGMDVWGQGTTVTVSSASTKGPSVFPLAPSSKSTSGGTAALGCLVKDYFPEPVTVSWNSGALTSGVHTFPAVLQSSGLYSLSSVVTVPSSSLGTQTYICNVNHKPSNTKVDKRV[human IgG1 Fc omitted here]
light: DIQMTQSPSSVSASVGDRVTITCRASQGISGWLAWYQQKPGKAPKFLIYAASTLQSGVPSRFSGSGSGTDFTLTISSLQPEDFATYYCQQANSFPPTFGGGTKVEIKRTVAAPSVFIFPPSDEQLKSGTASVVCLLNNFYPREAKVQWKVDNALQSGNSQESVTEQDSKDSTYSLSSTLTLSKADYEKHKVYACEVTHQGLSSPVTKSFNRGEC
modifications: conjugated to reagent compound 1100
As for B6, the Agg. % in series [1] was determined as 1.73%. Further, in series [2], the DAR was 1.99.

B7: B-cmp. 1574: "B=enfortumab"; "Conjugations of the appropriate reagent to the antibody (A or B)": ADC of enfortumab with reagent compound 1574 (conjugate, chains of the INN, looked up)
heavy: EVQLVESGGGLVQPGGSLRLSCAASGFTFSSYNMNWVRQAPGKGLEWVSYISSSSSTIYYADSVKGRFTISRDNAKNSLSLQMNSLRDEDTAVYYCARAYYYGMDVWGQGTTVTVSSASTKGPSVFPLAPSSKSTSGGTAALGCLVKDYFPEPVTVSWNSGALTSGVHTFPAVLQSSGLYSLSSVVTVPSSSLGTQTYICNVNHKPSNTKVDKRV[human IgG1 Fc omitted here]
light: DIQMTQSPSSVSASVGDRVTITCRASQGISGWLAWYQQKPGKAPKFLIYAASTLQSGVPSRFSGSGSGTDFTLTISSLQPEDFATYYCQQANSFPPTFGGGTKVEIKRTVAAPSVFIFPPSDEQLKSGTASVVCLLNNFYPREAKVQWKVDNALQSGNSQESVTEQDSKDSTYSLSSTLTLSKADYEKHKVYACEVTHQGLSSPVTKSFNRGEC
modifications: conjugated to reagent compound 1574
With B7, in series [1], the Agg. % was determined as 1.23%. Moreover, the DAR in series [2] was 3.92.

B8: B-cmp. 1105: "B=enfortumab"; "Conjugations of the appropriate reagent to the antibody (A or B)": ADC of enfortumab with reagent compound 1105 (conjugate, chains of the INN, looked up)
heavy: EVQLVESGGGLVQPGGSLRLSCAASGFTFSSYNMNWVRQAPGKGLEWVSYISSSSSTIYYADSVKGRFTISRDNAKNSLSLQMNSLRDEDTAVYYCARAYYYGMDVWGQGTTVTVSSASTKGPSVFPLAPSSKSTSGGTAALGCLVKDYFPEPVTVSWNSGALTSGVHTFPAVLQSSGLYSLSSVVTVPSSSLGTQTYICNVNHKPSNTKVDKRV[human IgG1 Fc omitted here]
light: DIQMTQSPSSVSASVGDRVTITCRASQGISGWLAWYQQKPGKAPKFLIYAASTLQSGVPSRFSGSGSGTDFTLTISSLQPEDFATYYCQQANSFPPTFGGGTKVEIKRTVAAPSVFIFPPSDEQLKSGTASVVCLLNNFYPREAKVQWKVDNALQSGNSQESVTEQDSKDSTYSLSSTLTLSKADYEKHKVYACEVTHQGLSSPVTKSFNRGEC
modifications: conjugated to reagent compound 1105
Turning to B8, in series [1], the Agg. % stood at 0.60%. Besides, in series [2], the DAR came to 3.62.
